# From the supplement of paper PMC12340641
# In all, about 1,000 compounds were measured (“relative growth in counter assay (no AraC = 100%, AraC + DMSO = 0%)”: median about -1.1, highest 2% from about 20 on). This is one part of the list.
# Test system: HEK293FT dCK*-only
# Test: relative growth in counter assay (no AraC = 100%, AraC + DMSO = 0%); higher = more growth rescue independent of IKZF1
# Conditions: compound concentration: 5 uM; AraC concentration: 0.3 uM; overnight pretreatment + 4 days AraC
# Method: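 Growth recovery screen of the molecular-glue-like (Specs) library. HEK293FT cells expressing a dCK*-IKZF1 fusion (primary) or dCK* alone (counter) were pretreated overnight with compound at 5 uM, then given 0.3 uM AraC for 4 days. Hoechst nuclei were counted by imaging. Primary: normalised to pomalidomide (100%) and DMSO (0%), mean of 2 replicates. Counter: normalised to no-AraC (100%) and AraC+DMSO (0%), single replicate.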
row,Structure (SMILES),relative growth in counter assay [%]
1,COc1cc(NS(=O)(=O)c2ccc(NC(=O)COc3ccccc3C)cc2)nc(OC)n1,-13.3
2,CC(=O)Oc1ccccc1N1C(=O)c2ccc(Oc3ccc(N)cc3)cc2C1=O,-0.98
3,Cc1nc(Nc2cccc(C3CCN(C(=O)C(C)C)CC3)n2)sc1C,15.4
4,O=C1CCC(N2C(=O)c3cccc(N4CCC(C(=O)O)CC4)c3C2=O)C(=O)N1 (configuration not stated),3.86
5,CC(=O)Nc1ccc(S(=O)(=O)N(C#N)c2nc(C)cc(C)n2)cc1,5.8
6,Cc1nc(Nc2cccc(C3CCCN3C(=O)CCN3C(=O)CCNC3=O)n2)sc1C (configuration not stated),-8.82
7,O=[N+]([O-])c1ccc(S(=O)(=O)Nc2nc3ccccc3nc2Nc2ccccc2)cc1,8.01
8,Cc1csc(Nc2cccc(C3CN(C(=O)Cn4nc(C)ccc4=O)CCO3)n2)n1 (configuration not stated),-2.02
9,CCCc1cnc(Nc2cccc(C3CCN(C(=O)[C@@H]4CCCCN4C(=O)OC(C)(C)C)CC3)n2)s1,-19.7
10,Cc1cc(C)c2[nH]c3nc(SCC(=O)Nc4cc(Cl)ccc4C)nnc3c2c1,0.85
11,Cc1ccc2[nH]c3nc(SCC(=O)Nc4cccc(Cl)c4)nnc3c2c1,-1.34
12,O=C(Cc1ccc(F)cc1)N1CCCC1c1cccc(Nc2nccs2)n1 (configuration not stated),6.68
13,CC(=O)Nc1cc(C)c(S(=O)(=O)N2CCOC(c3cccc(Nc4ncc(C)s4)n3)C2)cc1C (configuration not stated),10.9
14,O=C(C1CCCCC1)N1CCC(c2cccc(Nc3ncc(Cl)s3)n2)CC1,-5.45
15,C[C@@H](N)C(=O)N1CCC(CO)(c2cccc(Nc3ncc(-c4ccccc4)s3)n2)CC1,-21.8
16,Cc1cc(C)nc(NS(=O)(=O)c2ccc(NC(=O)CSc3nccn3C)cc2)n1,2.1
17,Cc1nc(Nc2cccc(C3CCCN3C(=O)CCc3nc4ccccc4[nH]3)n2)sc1C (configuration not stated),7.88
18,O=S(=O)(Nc1ccc(S(=O)(=O)Nc2ncccn2)cc1)c1ccccc1,-2.05
19,Cc1ccc(CCC(=O)Nc2ccc(S(=O)(=O)Nc3ncccn3)cc2)cc1,8.72
20,Nc1ccc(Oc2ccc3c(c2)C(=O)N(c2ccccc2)C3=O)cc1,-1.56
21,O=C(/C=C/c1ccccc1)N1CCCC1c1csc(Nc2ccccn2)n1 (configuration not stated),-3.28
22,CC(C)(C)C(=O)N1CCOC(c2cccc(Nc3ncc(Cc4ccccc4)s3)n2)C1 (configuration not stated),-3.84
23,CN(C)C(=O)CN1CCC(c2csc(Nc3ccccn3)n2)CC1,7.74
24,CC(C)(C)C(=O)Nc1ccc(S(=O)(=O)Nc2ccccn2)cc1,-5.56

row,Structure (SMILES),relative growth in counter assay [%]
1,COc1cc(NS(=O)(=O)c2ccc(NC(=O)c3ccc(-c4ccccc4)cc3)cc2)nc(OC)n1,-2.97
2,CC1CCN(C(=O)CN2CCC(c3cccc(Nc4nccs4)n3)CC2)CC1,-0.36
3,Cc1ccnc(NS(=O)(=O)c2ccc(NC(=O)CSc3nc(C)cc(=O)[nH]3)cc2)n1,-2.62
4,CC(=O)N1CCC(Cc2cccc(Nc3nc(C)cs3)n2)CC1,24.3
5,Cc1cnc(Nc2cccc(C3CN(C(=O)CCc4ccc(S(N)(=O)=O)cc4)CCO3)n2)s1 (configuration not stated),6.65
6,CCOCc1ccc(C(=O)N2CCOC(c3cccc(Nc4nccs4)n3)C2)cc1 (configuration not stated),2.54
7,Cc1cnc(Nc2cccc(C3CN(C(=O)C4(c5ccccc5)CCCC4)CCO3)n2)s1 (configuration not stated),6.63
8,CC(C)CC(C(=O)Nc1ccc(S(=O)(=O)Nc2ccccn2)cc1)N1C(=O)c2ccccc2C1=O (configuration not stated),0.21
9,CC1Cc2cc(CCC(=O)N3CCC(c4cccc(Nc5nccs5)n4)CC3)ccc2O1 (configuration not stated),9.65
10,Nc1ccc(S(=O)(=O)Nc2nccc(/C=C/c3ccc(Cl)cc3)n2)cc1,4.07
11,Cc1cnc(Nc2cccc(C3(COC(=O)C4CCCCC4)CCN(C(=O)C4CCCCC4)CC3)n2)s1,2.81
12,CCCC(=O)Nc1ccc(S(=O)(=O)Nc2nc(C)cc(C)n2)cc1,-9.14
13,CCCc1cnc(Nc2cccc(C3CCN(C(=O)C(C)(C)NC(=O)OC(C)(C)C)CC3)n2)s1,-22.3
14,Cc1csc(Nc2cccc(C3CCCN3C(=O)Cc3ccc(F)cc3)n2)n1 (configuration not stated),10.1
15,O=C(COc1ccc(Cl)cc1Cl)Nc1ccc(S(=O)(=O)Nc2ncccn2)cc1,7.22
16,CCc1nnsc1C(=O)N1CCCC1c1cccc(Nc2nc(C)cs2)n1 (configuration not stated),-0.34
17,Cc1cnc(Nc2cccc(C3CCN(C(=O)C4(C)CCCCC4)CC3)n2)s1,-13.2
18,COc1ccc(Cl)cc1NC(=O)CSc1nnc2c(n1)[nH]c1ccc(F)cc12,5.27
19,CCCc1cnc(Nc2cccc(C3CCN(C(=O)C(C)(C)NC(=O)COC)CC3)n2)s1,-2.68
20,Cc1ccc(CC(=O)N2CCOC(c3cccc(Nc4nc(C)c(C)s4)n3)C2)cc1C (configuration not stated),17
21,O=C(CSc1nnc2c(n1)[nH]c1ccccc12)Nc1ccc(F)cc1,15.9
22,Cc1cnc(Nc2cccc(C3CN(C(=O)CNc4ccccc4)CCO3)n2)s1 (configuration not stated),-19
23,Cc1ccc(Oc2cccc(N3C(=O)c4ccc(Oc5ccc(N)cc5)cc4C3=O)c2)cc1C,-3.99
